Experimental data reported in PubChem BioAssay AID624173 (National Center for Advancing Translational Sciences (NCATS), 2012).
Several values for one entry are separate records, joined by “and”; a condition that tells them apart may be missing. Equal entries are not always repeated. Among all 410,000 compounds or so, about 490 (0.12%) were called active. The inconclusive results got no clear call from the source; some entries with a clear call stand among them for comparison. Calls follow the shape of the dose curve; as a rule, active = well fitted inhibition curve with a large enough effect; inconclusive = small, poorly fitted or top-dose-only effect; inactive = flat fitted curve, though single readings scatter. Where the call is inconclusive, the potency comes from a doubtful curve fit.

biological target: pyruvate kinase (Trypanosoma brucei) (UniProt Q57TT1); test: qHTS of Trypanosoma Brucei Inhibitors; details: TbPYK enzyme, Kinase-Glo Plus ATP luminescence, 45 min; series mostly up to 76.8 µM; activity, negative = inhibition: at the top concentration; also: nearly all actives have a fitted effect of over 50% in size
In short: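 TbPYK + substrate in 50 mM TEA pH 7.2, 100 mM KCl, 10 mM MgCl2, 0.05% BSA, 0.01% Tween-20; cpd pinned; ADP 130 uM final; 45 min RT; Kinase-Glo Plus 10 min; luminescence endpoint.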
% is scaled to controls: 0 for no effect and ±100 for the full control effect; potency is read from the fitted curve at half-maximal effect; tags tell the direction and shape of the fitted curve.

| Compound | Potency | activity, negative = inhibition |
| --- | --- | --- |
| CN1CCc2c(sc3c2c(=O)n(-c2ccccc2)c2nncn32)C1 | inconclusive: 39.8 µM [inhibitor, partial curve, poor fit] |  |
| O=C(CSc1nnnn1-c1cccc2c1CCCC2)N1CCCC1 | inconclusive: 28.2 µM [inhibitor, single point] |  |
| CCN1/C(=C/C=C/C=C/c2sc3ccccc3[n+]2CC)Sc2ccccc21 | inconclusive: 39.8 µM [inhibitor, partial curve, poor fit] and inconclusive: 5.62 µM [inhibitor, full curve, poor fit] |  |
| Cc1sc(NC(=O)C2CCCCC2C(=O)O)c(C(N)=O)c1-c1ccc(C(C)(C)C)cc1 (stereo not drawn) | inconclusive: 15.8 µM [inhibitor, partial curve, poor fit] |  |
| COc1ccccc1NS(=O)(=O)c1cc(NC(=O)c2ccc(Cl)nc2)ccc1N1CCCC1 | inconclusive: 15.8 µM [inhibitor, partial curve, poor fit] |  |
| Cc1ccc(C)c(NC(=O)CS(=O)(=O)c2cccc3nsnc23)c1 | inconclusive: 17.8 µM [inhibitor, partial curve, poor fit] |  |
| Cc1nn2c(=S)[nH]nc2[nH]c1=O | inconclusive: 50.1 µM [inhibitor, single point] |  |
| COc1cc(/C=C2/NC(=O)N(Cc3ccccc3F)C2=O)cc(OC)c1O | inconclusive: 31.6 µM [inhibitor, partial curve, poor fit] |  |
| CCOC(=O)CSc1n[nH]c(=S)s1 | inconclusive: 28.2 µM [inhibitor, partial curve, poor fit] |  |
| Oc1[nH]c2ccccc2c1/C=N/c1nccs1 | inconclusive: 5.01 µM [inhibitor, partial curve, poor fit] |  |
| O=C(O)c1cccc2cccc(-c3c4ccc(=O)c(O)c-4oc4c(O)c(O)ccc34)c12 | inconclusive: 31.6 µM [inhibitor, partial curve, poor fit] |  |
| CCOc1ccc(NC(=O)c2c(NCc3cccnc3)sc3c2CCCC3)cc1 | inconclusive: 12.6 µM [inhibitor, partial curve, poor fit] |  |
| CC(C)OC(=O)c1ccc(NCc2cc(O)ccc2O)cc1 | inconclusive: 39.8 µM [inhibitor, partial curve, poor fit] |  |
| CCN(CC)c1ccc(C(=C2C=CC(=[N+](CC)CC)C=C2)c2ccc(N(CC)CC)cc2)cc1 | inconclusive: 39.8 µM [inhibitor, partial curve, poor fit] |  |
| CCOC(=O)c1ccc(NC(=O)C2=C(C)C(=O)OC23CCN(C(C)=O)CC3)cc1 |  | inactive: -4.02% [at 15.4 µM] |
| Oc1ccc(NCc2ccccc2OCc2ccccc2)cc1 | inconclusive: 2.51 µM [inhibitor, full curve] |  |
| CCCOc1ccc(/C=C2/C(=O)ON=C2C)cc1Cl | inconclusive: 50.1 µM [inhibitor, single point] |  |
| Cn1cccc1/C=N/n1c(-c2ccc(Cl)cc2)n[nH]c1=S | inconclusive: 50.1 µM [inhibitor, single point] |  |
| COc1ccc(-c2n[nH]c(=S)n2-c2ccccc2C)cc1OC | inconclusive: 7.08 µM [inhibitor, partial curve] |  |
| CCc1cc2c(=O)n(-c3ccc(Br)cc3)cnc2s1 |  | inactive: -2.74% |
| COC(C[C@H]1O[C@H]1[C@H](O)COCc1ccccc1)OC |  | inactive: 0.442% |
| O=C(COc1ccc(Br)cc1)N/N=C1/SCC(=O)N1Cc1ccco1 | inconclusive: 35.5 µM [inhibitor, single point] |  |
| CCOc1cc(/C=N/NC(=O)C(=O)Nc2cc(Cl)ccc2C)ccc1O |  | inactive: -1.53% |

| Compound | Potency | activity, negative = inhibition |
| --- | --- | --- |
| O=C(Cn1nc(-c2ccco2)ccc1=O)Nc1cc(Cl)ccc1Cl |  | inactive: -12.9% |
| Clc1ccc(CSc2ncn(-c3ccccc3)n2)cc1 |  | inactive: 2.08% |
| COc1ccc(-n2c(-c3ccc(Cl)cc3)n[nH]c2=S)c(OC)c1 | active: 5.62 µM |  |
| Cc1ccc(S(=O)(=O)Nc2ccc3cn[nH]c3c2)cc1 |  | inactive: 1.97% |
| COc1ccc(N2C(=O)/C(=C/c3ccc(N(C)C)o3)C(=O)NC2=S)cc1 | inconclusive: 12.6 µM [inhibitor, partial curve] |  |
| O=C(Oc1oc(-c2ccco2)nc1C=Nc1ccccc1)c1ccco1 | inconclusive: 5.01 µM [inhibitor, full curve] |  |
| COc1ccc(-n2c(CNC(=O)c3cccs3)n[nH]c2=S)cc1 | inconclusive: 25.1 µM [inhibitor, partial curve, poor fit] |  |
| Cc1ccccc1-c1noc(-c2ccccc2C(=O)N2CCCC2)n1 |  | inactive: 5.47% |
| Cc1ccnc(Nc2nc3ccccc3o2)n1 | inconclusive: 35.5 µM [inhibitor, partial curve, poor fit] |  |
| c1coc(-c2nnc3sc(Cc4cccs4)nn23)c1 | inconclusive: 31.6 µM [inhibitor, single point] |  |
| S=c1[nH]nc(-c2ccco2)n1-c1ccc(Br)cc1 | inconclusive: 5.62 µM [inhibitor, partial curve] |  |
| Cc1ccc(NC(=O)Nc2ccc(Cl)c(Cl)c2)nc1 |  | inactive: -1.76% |
| Cc1ccc2c(c1)N(CC(=O)NCc1cccs1)C(=O)C(C)O2 (stereo not drawn) |  | inactive: -2.69% |
| O=C(COC(=O)c1ccc2[nH]c3c(c2c1)CCCC3)Nc1ccccc1Cl |  | inactive: 2.9% |
| O=[N+]([O-])c1cccnc1NCCNc1ncc(C(F)(F)F)cc1Cl | inconclusive: 5.01 µM [inhibitor, partial curve, poor fit] |  |
| O=c1oc2ccccc2n1CCCOc1ccccc1Cl |  | inactive: 1.53% |
| O=C(COc1ccc([N+](=O)[O-])cc1)Nc1ccc2c(c1)nc1n2CCOC1 | inconclusive: 50.1 µM [inhibitor, single point] |  |
| CN(C)c1ccc(C(=C2C=CC(=[N+](C)C)C=C2)c2ccc(N(C)C)cc2)cc1 | inconclusive: 20 µM [inhibitor, partial curve] |  |
| CC(=O)NC1=NN(C(C)=O)C(c2ccccc2)S1 (stereo not drawn) | inconclusive: 39.8 µM [inhibitor, partial curve, poor fit] |  |
| Fc1ccc(-n2c(-c3ccc4ccccc4n3)n[nH]c2=S)cc1 | inconclusive: 3.98 µM [inhibitor, partial curve, poor fit] |  |
| O=S(=O)(Nc1ccc(Cl)cc1)c1ccc(N2CCOCC2)c(NC(=S)NCCN2CCOCC2)c1 | inconclusive: 3.16 µM [inhibitor, full curve] |  |
| CCCn1c(SCC(=O)Nc2nnc(C)s2)nnc1-c1ccoc1C | inconclusive: 50.1 µM [inhibitor, single point] |  |
| CC(C)OCCCn1c(-c2ccc(Br)cc2)c[nH]c1=S | inconclusive: 2.82 µM [inhibitor, partial curve, poor fit] |  |

| Compound | Potency | activity, negative = inhibition |
| --- | --- | --- |
| S=c1[nH]nc(-c2cc(-c3ccco3)[nH]n2)n1-c1ccccc1 | inconclusive: 4.47 µM [inhibitor, partial curve, poor fit] |  |
| Oc1c(Cl)cc(Cl)cc1C=Nc1cc(C(F)(F)F)ccc1N1CCc2ccccc2C1 | inconclusive: 22.4 µM [inhibitor, partial curve, poor fit] |  |
| C=CCn1c(CNS(=O)(=O)c2ccc(Cl)cc2)n[nH]c1=S | inconclusive: 22.4 µM [inhibitor, partial curve, poor fit] |  |
| S=c1[nH]nc2c3c4c(sc3ncn12)CCCC4 | inconclusive: 2.82 µM [inhibitor, partial curve, poor fit] |  |
| COc1ccccc1N1CCN(C(=O)c2ccc3c(c2)N(Cc2cc(C)ccc2C)C(=O)c2ccccc2S3(=O)=O)CC1 |  | inactive: 7.24% |
| CCOC(=O)N1CCc2c(sc(NCc3cccs3)c2C(=O)Nc2cc(Cl)ccc2OC)C1 | inconclusive: 3.98 µM [inhibitor, full curve] |  |
| C#CCNC(=O)C1CCN(c2cc(C)nc(-c3ccccc3)n2)CC1 |  | inactive: -2.56% |
| CCOC(=O)c1c(NC(=O)c2ccc(S(=O)(=O)N(CC(C)C)CC(C)C)cc2)sc2c1CCN(CC)C2 |  | inactive: -4.43% |
| CN(C)c1ccc(-c2n[nH]c(=S)n2-c2ccccc2)cc1 | inconclusive: 2.51 µM [inhibitor, full curve, poor fit] |  |
| COC(=O)c1cn[nH]c1NC(=S)Nc1ccccc1C |  | inactive: -14.7% |
| C[C@]12CCC(=O)C=C1CC[C@@H]1C2[C@H](O)C[C@]2(C)C(=O)CCC12 (stereo partly drawn) |  | inactive: -10.4% |
| CCCS(=O)(=O)N1CCCC(C(=O)Nc2ccc3c(c2)CCC3)C1 (stereo not drawn) |  | inactive: 0.277% |
| Cc1ccc(/C=C/C(=O)Nc2nn[nH]n2)o1 | inconclusive: 28.2 µM [inhibitor, partial curve, poor fit] |  |
| Cc1cc(C)cc(OCC(=O)OC/C(O)=C(\C#N)c2nc3ccccc3[nH]2)c1 |  | inactive: -3.12% |
| COc1ccccc1OCC(=O)Nc1ccccn1 | inconclusive: 35.5 µM [inhibitor, single point] |  |
| CCNC(=S)NNC(=O)c1nn(C)c(C)c1Cl |  | inactive: 2.55% |
| CN1CC2(Cc3c1ccc1ccccc31)C(=O)OC(C)(C)OC2=O | inconclusive: 14.1 µM [inhibitor, partial curve, poor fit] |  |
| Cc1ccc(NCN2C(=O)C3C4C=CC(C4)C3C2=O)cc1 (stereo not drawn) | inconclusive: 50.1 µM [inhibitor, single point] |  |
| CC(C)CC(C(=O)O)N1C(=O)C2C3CC(C2C1=O)C1C(c2ccccc2)c2sc(=O)[nH]c2SC31 (stereo not drawn) | inconclusive: 11.2 µM [inhibitor, partial curve] |  |
| CC(C)c1ccc(C(=O)N/N=C/c2cccc(Cl)c2Cl)cc1 |  | inactive: -2.76% |
| O=C(Nc1cccc(F)c1)Nc1cnccn1 |  | inactive: -3.92% |
| COc1ccc(-c2ccc(NC(=O)c3ccco3)cc2)nn1 | inconclusive: 28.2 µM [inhibitor, partial curve] |  |
